Measurements: PubChem BioAssay AID1508623 (National Center for Advancing Translational Sciences (NCATS), 2021)
Out of some 48,000 compounds screened, about 450 (0.94%) were called active. Not shown: some 19% with an inconclusive outcome. Calls come from the whole dose curve; as a rule, active = well fitted inhibition curve with a large enough effect; inconclusive = small, poorly fitted or top-dose-only effect; inactive = no such curve, though single readings can be large or run the other way. This is one part of the list.

Assay: Primary qHTS for Identification of Small Molecule Inhibitors of Huntingtin Promoter Activity; note: nearly all actives have a fitted effect of over 50% in size
Settings: HEK293 HTT promoter firefly luciferase reporter (activity 0% = vehicle and -100% = no light), 24 h; series mostly up to 57.5 µM; activity change, negative = inhibition: at the top concentration
Summary of the method: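 Quantitative HTS used concentration series of up to 57.5 uM final on HEK293 luciferase reporter cells, 24 h at 37 degrees C. Readout was Dual-Glo firefly luminescence.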

Structure (SMILES) | activity change, negative = inhibition
CSc1ncc(Cl)c(C(=O)Nc2c(C(=O)c3ccc(C)c(F)c3)oc3ccccc23)n1 | inactive: -7.26%
COc1cccc(NC(=O)CCc2nc(-c3cccs3)no2)c1 | inactive: -22.7%
Cc1cc2[nH]c(=O)c(=O)[nH]c2cc1S(=O)(=O)Nc1ccc(OC(F)(F)F)cc1 | inactive: -3.3%
COc1cccc(CNC(=O)C(Cc2ccccc2)NS(=O)(=O)c2ccc3c(c2)oc(=O)n3C)c1 (stereo not drawn) | inactive: -15.7%
Cc1cccc(OC(=O)c2cc(-c3ccc4c(c3)OCCO4)on2)c1C | inactive: 9.29%
Cc1cccc(N2CCN(c3ccc(NC(=O)c4ccccc4)cc3C(=O)O)CC2C)c1 (stereo not drawn) | inactive: -9.65%
Cc1cccc(NC(=O)c2ccc3nc(CCc4ccccc4)oc3c2)c1C | inactive: 28.6%
Cc1ncc(CO)c2c1Oc1nc(-c3ccc(F)cc3)nc(SCc3ccc(F)cc3Cl)c1C2 | inactive: -19.4%
O=C(NCc1ccc(F)cc1)c1ccc2c(c1)nc1n2CCCCC1 | inactive: 29.1%
COc1ccc(-c2noc(-c3nnn(-c4ccc(C(C)C)cc4)c3C)n2)cc1OC | inactive: 3.14%
CCCS(=O)(=O)N1CCC(N2CCN(Cc3ccc(F)cc3)C(=O)C2=O)CC1 | inactive: 19.1%
O=C(Nc1ccccc1)c1ccc2c(O)c(S(=O)(=O)c3ccc(Cl)cc3)c(=O)[nH]c2c1 | inactive: -13%
CCOC(=O)c1ccc(NC(=O)CN2Cc3ccccc3C2=O)cc1 | inactive: -7.69%
COc1ccccc1C(=O)Nc1onc2c1CCCC2 | inactive: -25%
CCn1cc(C(=O)N2CCN(c3ccc(OC)cc3)CC2)c2cc(OC)c(OC)cc2c1=O | inactive: 1.15%
O=S(=O)(c1ccc2nc(Nc3cccc(F)c3)ccc2c1)N1CCCC1 | inactive: -4.07%
Cc1ccccc1Cn1c2ccccc2c2cnn(CC(=O)N3CCC(C)CC3)c(=O)c21 | inactive: -20%
CCc1ccc(NC(=O)N2CCC(N3CCN(Cc4ccc(C)cc4)C(=O)C3=O)CC2)cc1 | inactive: 1.14%
COc1ccc(-c2cc3nccc(-c4cc(Cl)c(C)cc4O)n3n2)cc1 | inactive: -24.1%
CCOc1ccccc1NC(=O)CSC1=Nc2ccccc2C2=NC(CC(=O)NCc3ccc4c(c3)OCO4)C(=O)N12 (stereo not drawn) | inactive: -20.9%
Cc1nn(CC(=O)NCCc2ccccc2)c(=O)c2c1sc1ccccc12 | inactive: -8.62%
O=c1cc(-c2ccccc2)n2c(SCc3ccc(Br)cc3)nnc2[nH]1 | inactive: -9.37%
Cc1cc2nc(N(Cc3cccnc3)C(=O)c3ccc(Cl)s3)sc2cc1C | inactive: -15.5%
Cc1ccc(S(=O)(=O)NCC(c2ccc(N(C)C)cc2)N2CCc3ccccc32)cc1 (stereo not drawn) | inactive: -16.6%

Structure (SMILES) | activity change, negative = inhibition
CC(=O)N1c2ccc(S(=O)(=O)N(C)CC(=O)N(Cc3ccccc3)C(C)C)cc2CC1C (stereo not drawn) | inactive: -25.3%
CC(C)(C)c1ccc(C(=O)N2CCN(CCc3ccccn3)CC2)cc1 | inactive: -19.9% [at 11.5 µM]
CCN(Cc1ccccc1)Cc1c(O)ccc2oc(C)c(C(=O)Nc3ccccc3C)c12 | inactive: -34.7%
O=C(Cc1ccccc1)Nc1nnc2n1CCS2 | inactive: 2.03%
CCC(C)NC(=O)Cn1c(=O)n(-c2ccc(C)c(C)c2)c(=O)c2c(C)c(C(=O)N(CC)CC)sc21 (stereo not drawn) | inactive: 0%
C=CC(=O)Nc1cc2c(Nc3ccc(F)c(Cl)c3)ncnc2cc1C#CC(C)(C)N1CCN(C)CC1 | inactive: -3.12%
CCOc1ccccc1C(=O)N1CC(=O)Nc2ccc(C)cc2C1c1ccccc1 (stereo not drawn) | inactive: -21%
CCOc1ccccc1NC(=O)N1CCc2c(sc3c2CCCC3)C1c1ccccc1 (stereo not drawn) | inactive: -29.6%
Cc1nn2c(=O)cc(COc3ccc(/C=C(\C#N)C(=O)Nc4ccccc4)cc3Cl)nc2s1 | inactive: -18%
CNC1CCC(N(Cc2cccc(-c3ccncc3)c2)C(=O)c2sc3c(F)ccc(F)c3c2Cl)CC1 (stereo not drawn) | inactive: -14.5%
O=C(OCc1ccccc1Cl)c1ccc(-c2nnn(Cc3ccc(F)cc3)n2)cc1 | inactive: -15.6%
Brc1ccc2c(c1)NC(c1cccnc1)=NC(c1ccccc1)=N2 | inactive: 48.5%
CCOc1cc(C(=O)NCc2nc(-c3cccc(C)c3)no2)cc(OCC)c1OCC | inactive: -1.92%
COC(=O)c1ccccc1NC(=O)c1cc(CN2CCOCC2)on1 | inactive: 2.68%
O=C(CSc1nc2ccccc2nc1Cc1ccccc1F)Nc1cccc(C(F)(F)F)c1 | inactive: -12.6%
COc1ccc(-c2cc3nc(C)c(CCC(=O)N4CCN(c5ccccc5F)CC4)c(C)n3n2)c(OC)c1 | inactive: -13.4%
CCC(=O)Nc1ccc(CC)cc1-c1nc2ccccc2n(CC(=O)Nc2ccccc2C)c1=O | inactive: -9.03%
COc1ccc(-c2onc(C)c2C)cc1S(=O)(=O)Nc1cc(Cl)ccc1C | inactive: -18.3%
CCN(CC)c1ccc(NC(=O)CCS(=O)(=O)c2ccc3c(c2)oc(=O)n3C)c(C)c1 | inactive: -9.05%
CC(C)OCCCn1c(=O)c2ccccc2n2c(-c3cc(Cl)ccc3O)nnc12 | inactive: -14.1%
COc1cc(C(=O)Nc2ccc(-c3nc4ccccc4o3)c(O)c2)cc(OC)c1OC | inactive: -12.6%
Cc1cn2c(=O)cc(COC(=O)c3ccc(NC(=O)COc4ccc(C)c(C)c4)cc3)nc2s1 | inactive: -17.2%
COc1cc2c(cc1OC)C(COc1ccc(F)cc1)N(C(=O)Cc1ccccc1)CC2 (stereo not drawn) | inactive: -20%
CCOc1ccc(-c2cc(C(=O)NCCCOC)c3c(-c4ccc(CC)cc4)[nH]nc3n2)cc1 | inactive: -12.7%
